# From PubChem BioAssay AID624417 (National Center for Advancing Translational Sciences (NCATS), 2012)
# About 6,400 (1.6%) of roughly 410,000 compounds were called active. Inconclusive means that the source gave no clear call. Such entries were picked first, then a sample of the others. The call rests on the fitted dose curve; in most records, active means well fitted inhibition curve with a large enough effect; inconclusive means small, poorly fitted or top-dose-only effect; inactive means no such curve, though single readings can be large or run the other way. No potency is given beside an inconclusive call; the fits are too rough.
# Molecular target: Glucagon-like peptide 1 receptor (Homo sapiens) (UniProt P43220)
# Chain of UniProt P43220 (P43220 whole entry, looked up): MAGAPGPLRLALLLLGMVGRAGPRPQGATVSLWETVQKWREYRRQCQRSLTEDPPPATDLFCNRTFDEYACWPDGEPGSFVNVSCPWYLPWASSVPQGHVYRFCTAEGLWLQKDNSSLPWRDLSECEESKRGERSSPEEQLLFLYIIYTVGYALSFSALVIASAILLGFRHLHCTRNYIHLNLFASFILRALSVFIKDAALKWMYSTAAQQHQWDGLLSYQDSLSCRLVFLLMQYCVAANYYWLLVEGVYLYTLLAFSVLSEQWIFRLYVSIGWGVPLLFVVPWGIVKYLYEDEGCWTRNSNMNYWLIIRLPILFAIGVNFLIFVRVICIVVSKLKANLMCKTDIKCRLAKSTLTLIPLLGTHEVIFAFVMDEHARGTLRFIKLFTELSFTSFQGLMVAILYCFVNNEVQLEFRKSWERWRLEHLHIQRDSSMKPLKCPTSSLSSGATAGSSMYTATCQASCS
# Assay: qHTS of GLP-1 Receptor Inverse Agonists (Inhibition Mode); further: nearly all actives have a fitted effect of over 55% in size
# Conditions: HEK293 GLP-1R CRE-luciferase, luminescence, 24 h, GLP-1R form is constitutively active; activity change, negative = inhibition: at 38.3 µM (top of the series) unless noted
# Method in brief: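 Luminescence readout: a drop in cAMP-driven luciferase signal flags inverse agonism at a constitutively active GLP-1R stably expressed in HEK293. Compound exposure lasted 24 hr at 37 deg C, 5% CO2.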
# On the % scale 0 is the no-effect control and ±100 the full control effect; potency means the concentration at half of the fitted maximal effect; tags describe the fitted curve by direction and shape.
SMILES,Potency,"activity change, negative = inhibition"
Cc1cccc(C)c1NC(=O)CN(C)CC(=O)Nc1sc2c(c1C(N)=O)CCC2,"inconclusive [inhibitor, partial curve]",–
O=C1CC(c2ccccc2)=Nc2ccc(Br)cc2N1,"inconclusive [inhibitor, single point]",–
COc1ccccc1NC(=O)c1c(C)oc2c1CCCC2,"inconclusive [inhibitor, single point]",–
CNc1c(NS(=O)(=O)c2ccc(OC)c(Cl)c2)c(=O)oc2ccccc12,"inconclusive [inhibitor, single point]",–
CC(C)Nc1nc(Nc2ccc(Cl)cc2F)c2sccc2n1,"inconclusive [inhibitor, single point]",–
CC1(C(=O)NCC2CC2)CCN1C(=O)C1(c2ccc(Cl)cc2)CC1 (stereo not drawn),inactive,–
CCOc1ccc(C(=O)c2cn(CC(=O)Nc3ccc(C)c(C)c3)c3ccc(OCC)cc3c2=O)cc1,inactive,–
CC(=O)NC(c1cccc(F)c1)c1nc(-c2cc3ccccc3o2)cs1 (stereo not drawn),"inconclusive [inhibitor, partial curve, poor fit]",–
Cc1ccc(Cl)c(OCCCN(C)Cc2ccccc2)c1,"inconclusive [inhibitor, partial curve, poor fit]",–
COc1ccc(OCC(=O)Nn2c(-c3ccc(C)cc3)nc3ccccc3c2=O)cc1,"inconclusive [inhibitor, single point]",–
COc1ccc(N(CC(=O)Nc2ccc(S(=O)(=O)N3CCOCC3)cc2)S(=O)(=O)c2ccccc2)cc1,inactive,–
Cc1ccc(N(CC(O)Cn2c3ccccc3c3ccccc32)S(C)(=O)=O)cc1 (stereo not drawn),"inconclusive [inhibitor, single point]",–
O=C(O)C1=CC(c2ccc(Br)cc2)n2ncnc2N1 (stereo not drawn),inactive,–
Clc1ccc(-c2cnc3n2CCCCC3)cc1,"inconclusive [inhibitor, partial curve, poor fit]",–
COc1ccc(OC)c(/C=C/C(=O)OCC(=O)Nc2cccc(Oc3ccccc3)c2)c1,"inconclusive [inhibitor, single point]",–
COc1ccc(C(=O)NC2(C(F)(F)F)NC(=O)N(CCCc3ccccc3)C2=O)cc1OC (stereo not drawn),"inconclusive [inhibitor, partial curve, poor fit]",–
COc1ccc(C(C)=O)cc1COC(=O)c1cc(C)nc2ccccc12,inactive,–
CC(Nc1nc(N2CCNCC2)nc2ccccc12)c1ccccc1 (stereo not drawn),active: 11.2 µM,–
Oc1ccc(-c2n[nH]c(C(F)(F)F)c2-c2ccccc2)c(O)c1,"inconclusive [inhibitor, partial curve, poor fit]",–
CC(Oc1ccc(Cl)cc1)C(=O)Nc1sccc1C(N)=O (stereo not drawn),"inconclusive [inhibitor, single point]",–
COc1ccc(C(=O)C2CCCN(Cc3ccc(C#CCCO)cc3)C2)c(OC)c1 (stereo not drawn),"inconclusive [inhibitor, partial curve, poor fit]",–

SMILES,Potency,"activity change, negative = inhibition"
CN(CCC#N)C(=O)COC(=O)c1nn(-c2ccccc2)c(=O)c2ccccc12,inactive,–
CC1CCC(NC(=O)CCc2cn(Cc3ccc(F)cc3)c3ccccc23)CC1 (stereo not drawn),"inconclusive [inhibitor, partial curve, poor fit]",–
C=C1c2cccc(OC)c2O[C@H](C(=O)OCC)[C@@H]1CC(CC)CCCC (stereo partly drawn),"inconclusive [inhibitor, partial curve, poor fit]",–
CCOC(=O)c1cccc(NC(=O)Nc2cc(OC)ccc2OC)c1,"inconclusive [inhibitor, partial curve, poor fit]",–
COc1ccc2ccc(O)c(CN3CCN(S(=O)(=O)c4cccc(C(F)(F)F)c4)CC3)c2c1,"inconclusive [inhibitor, single point]",–
Cc1sc2c(c1C)c(=O)n(Cc1ccccc1)c(=O)n2CC(=O)Nc1cccc(Cl)c1,"inconclusive [inhibitor, partial curve, poor fit]",–
CCc1cccc(CC)c1NC(=O)CSc1nc2ccc(N3C(=O)C4C5C=CC(C5)C4C3=O)cc2s1 (stereo not drawn),"inconclusive [inhibitor, single point]",–
Oc1cccc(C(=S)N2CCC(Cc3ccccc3)CC2)c1,"inconclusive [inhibitor, single point]",–
COc1ccccc1C1CCN(Cc2ccccc2Cl)CC1,–,inconclusive: -55.1% [inhibitor]
CCOc1ccc(S(=O)(=O)NC2CCCCC2C)cc1 (stereo not drawn),active: 10 µM,–
O=C(N/C(=C/c1ccc(Br)cc1)C(=O)N1CCCCC1)c1ccccc1F,"inconclusive [inhibitor, partial curve, poor fit]",–
CCc1cccc(NC(=O)c2ccc(Br)o2)c1,"inconclusive [inhibitor, single point]",–
Cc1cc(C)c(OCC(O)CN2CCN(c3ccccn3)CC2)c(C)c1 (stereo not drawn),"inconclusive [inhibitor, partial curve, poor fit]",–
Cc1[nH]nc(-c2ccc(O)cc2O)c1Oc1ccccc1,"inconclusive [inhibitor, single point]",–
O=C(NCc1nc2ccccc2[nH]1)C1=C[C@H](c2csc3ccccc23)C[C@H](OCc2ccc(CO)cc2)O1,"inconclusive [inhibitor, partial curve, poor fit]",–
CCS(=O)(=O)c1ccc(N=Nc2ccc(O)c3ncccc23)c(OC)c1,inactive,–
COc1ccc(CNC(=O)c2c([S-])n(-c3ccc(C)cc3)c3cccc[n+]23)cc1,"inconclusive [inhibitor, single point]",–
CC1=NN(c2nc(-c3ccc(C)cc3)cs2)C(=O)C1N=Nc1cccc(C)c1 (stereo not drawn),inactive,–
Fc1ccc(Cn2nnnc2C(c2ccc(Cl)cc2)N2CCSCC2)cc1 (stereo not drawn),"inconclusive [inhibitor, single point]",–
CCOC(=O)C1=C[C@@H](C(C)(C)C)N(S(=O)(=O)c2ccc(C)cc2)[C@H]1c1ccccc1Cl,"inconclusive [inhibitor, partial curve, poor fit]",–
c1ccc(-c2nc(NCc3ccco3)c3oc4ccccc4c3n2)cc1,"inconclusive [inhibitor, full curve]",–

SMILES,Potency,"activity change, negative = inhibition"
CC1(C)N=C(N)N=C(N)N1c1ccc(OCC(=O)Nc2ccccc2)c(Cl)c1,"inconclusive [inhibitor, single point]",–
CCOc1ccccc1N(CC(=O)NC1CCCCC1)C(=O)c1nsc(Cl)c1Cl,active: 10 µM,–
CCC(=O)Nc1ccc(C(=O)CSc2nc3ccccc3cc2CC)cc1,"inconclusive [inhibitor, single point]",–
CN(CC12CC3CC(CC(C3)C1)C2)C(=O)c1ccco1,"inconclusive [inhibitor, single point]",–
CCOc1ccccc1N(CC)C(=O)c1cc2ccc3cccnc3c2[nH]1,"inconclusive [inhibitor, single point]",–
CC(C)Cn1c(CN(Cc2ccccc2)Cc2ccccc2)nc2c1c(=O)n(C)c(=O)n2C,"inconclusive [inhibitor, partial curve, poor fit]",–
CCn1c2ccccc2c2cc(NC(=O)CNCc3ccccc3OC)ccc21,"inconclusive [inhibitor, partial curve, poor fit]",–
CCCNC(=O)C1(C)CCN(Cc2ccc(OCc3ccccc3)cc2)C1 (stereo not drawn),"inconclusive [inhibitor, single point]",–
C#CCOc1ccccc1CNC1CCN(Cc2ccccc2)CC1,"inconclusive [inhibitor, partial curve, poor fit]",–
Cc1ccc(N2C(=O)C(CC(=O)Nc3ccccc3)N(CCC3=CCCCC3)C2=O)cc1 (stereo not drawn),"inconclusive [inhibitor, single point]",–
O=C(NCCCN1CCN(c2cccc(Cl)c2)CC1)c1nnc(Cc2ccc(F)cc2Cl)o1,active: 12.6 µM,–
Cc1ccc(NC(=S)NC2CCCC2)c(C)c1,"inconclusive [inhibitor, single point]",–
COc1ccccc1NC(=O)Nc1cccc(C(=O)O)c1,"inconclusive [inhibitor, single point]",–
CCc1cccc(C)c1N(C(=O)Cn1c(=O)[nH]c2ccccc21)C(C)COC (stereo not drawn),"inconclusive [inhibitor, single point]",–
COc1ccccc1CNC(=O)c1cc(-c2ccccc2)n[nH]1,"inconclusive [inhibitor, partial curve]",–
O=C(CCS(=O)(=O)c1nc(-c2cccs2)cc(C(F)(F)F)n1)Nc1cccc(O)c1,"inconclusive [inhibitor, single point]",–
COc1ccc(C(=S)N2CCN(c3cccc(Cl)c3)CC2)c(OC)c1,"inconclusive [inhibitor, partial curve, poor fit]",–
O=S(=O)(Nc1nc2ccc(S(=O)(=O)N3CCCC3)cc2s1)c1ccc(F)cc1,inactive,–
COc1ccc(NC(=S)NC(NC(=O)c2cccc3ccccc23)C(Cl)(Cl)Cl)c([N+](=O)[O-])c1 (stereo not drawn),"inconclusive [inhibitor, single point]",–
CCC(C)c1ccccc1NC(=O)C(C)N(C)Cc1cccc(OC)c1 (stereo not drawn),"inconclusive [inhibitor, partial curve, poor fit]",–
O=C(CN1CCN(Cc2ccc3c(c2)OCO3)CC1)c1c[nH]c2ccccc12,"inconclusive [inhibitor, single point]",–
